# Data as given in patent US9861707B2, “Treating bladder tumor cells using fibronectin attachment protein as a target” (Purdue Research Foundation, priority 2010, dated 2018).
# Tested on: T24 bladder tumor cells
substance,measurement,setting,value
transferrin: clathrin-dependent cargo control,effect of siRNA knock-down of Caveolin-1 on uptake,Caveolin-1 siRNA,failed to inhibit
same,effect of siRNA knock-down of clathrin on uptake,clathrin siRNA,efficiently inhibited
